In ChEMBL document CHEMBL1201862, “PubChem BioAssay data set” (2004):
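Tested at 5 concentrations; 48 h exposure; 96-well plates; endpoints linearly interpolated, else capped at highest concentration. GI50 = concentration required for 50% inhibition of growth.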 Active and inactive are the calls of the source. Rule as the data show it: active = GI50 up to about 1.1 µM and inactive = higher. Peptide text beside a SMILES is read from it. * marks the point of attachment. Boc = CC(C)(C)OC(=O)*; Bn = c1ccc(C*)cc1

What follows are molecules tested on NCI-H322M (assay: DTP human tumour cell line panel, 48 h).
With `O=C(Nc1cc(C(=O)Nc2cccc(S(=O)(=O)O)c2)cc(C(=O)Nc2cccc(S(=O)(=O)O)c2)c1)c1cccc(C(=O)Nc2cc(C(=O)Nc3cccc(S(=O)(=O)O)c3)cc(C(=O)Nc3cccc(S(=O)(=O)O)c3)c2)c1` the GI50 was inactive: > 100 µM.
With `O=C(NO)c1coc2ccccc2c1=O` the GI50 was inactive: 84.3 µM.
In the case of `CCN(CC)c1ccc(/N=N/c2ccc(-c3nc4cccn(C)c-4n3)cc2)cc1`, the GI50 was inactive: 13.3 µM.
With `CC1C(C#N)(C#N)C(C#N)=C(N)C1(C)[N+](=O)[O-]` (configuration not stated) the GI50 was inactive: > 100 µM.
For `Nc1nc(Cl)cc(Nc2ccc3c(c2)CCC3)n1`, the GI50 was inactive: 78.5 µM.
With `CCOc1cc(-c2nc3ccccn3c2/N=C/c2cc(Br)ccc2O)ccc1O` the GI50 was inactive: 42.7 µM.
`CCCCCCCCCCOC(=O)NCCC` was tested, and the GI50 was inactive: 74.6 µM.
With `O=c1[nH]c(=O)n(C2OC(CO)C(O)C2O)c2nc(-c3ccc(-c4ccccc4)cc3)cnc12` (configuration not stated) the GI50 was inactive: > 100 µM.
With `Cn1c(-c2cccs2)cc(-c2cccs2)c1-c1cccs1` the GI50 was inactive: > 100 µM.
`COc1ccc(-c2cc(-c3cc(F)c(Cl)cc3Cl)[nH]n2)cc1OC` was tested, and the GI50 was inactive: 28.8 µM.
With `CS(=O)(=O)C(=Cc1ccccc1Cl)S(C)(=O)=O` the GI50 was inactive: > 100 µM.
In the case of `Cc1ccc(S(=O)(=O)N2CCC3(C(/C=C/c4ccccc4)=Nc4ccccc43)C2c2ccccc2)cc1` (configuration not stated), the GI50 was inactive: > 100 µM.
For `Nc1ccc(-c2nc3ccc(F)cc3s2)cc1`, the GI50 was inactive: 34.5 µM.
`Cn1c2ccccc2n2c(N=O)c(-c3ccccc3)nc12` was tested, and the GI50 was inactive: 19.9 µM.
For `O=C1c2cc3ccccc3cc2C2(c3ccc(Cl)cc3)NCCN12` (configuration not stated), the GI50 was inactive: 35.1 µM.
In the case of `COC1=CC(=O)N(C(=O)[C@@H](OC(=O)[C@@H]2CCCN2C(=O)[C@@H]2CCCN2C(=O)[C@H](CC(C)C)N(C)C(=O)[C@@H](NC(=O)[C@@H](NC(=O)OCc2ccccc2)C(C)C)C(C)C)C(C)C)[C@H]1Cc1ccccc1` (HELM PEPTIDE1{[O=C(OCc1ccccc1)[*:2]].V.V.[meL].P.P.[COC1=CC(=O)N(C(=O)[C@@H](O[*:1])C(C)C)[C@H]1Cc1ccccc1]}$$$$V2.0), the GI50 was inactive: > 100 µM.
For `O=C1C(NCCc2cc(Br)c(O)c(Br)c2)=CC(=O)c2ncccc21`, the GI50 was inactive: 2.38 µM.
`Cc1ccc(S(=O)(=O)CC(=O)CC(=O)C(=O)Nc2cccc(C(F)(F)F)c2)cc1` was tested, and the GI50 was inactive: > 100 µM.
For `CN1C/C(=C\c2ccco2)c2nc(N)nc(-c3ccco3)c2C1`, the GI50 was inactive: > 100 µM.
In the case of `CCC1C(C#N)=C(O)NC(O)=C1C#N`, the GI50 was inactive: > 100 µM.
In the case of `COC(=O)C12OCC34C(CC5C(C)=CC(=O)C(O)C5(C)C3C(O)C1O)OC(=O)C(OC(=O)CC(C)C)C24` (configuration not stated), the GI50 was active: 0.00429 µM.
`CN(C)CCCNc1ccnc2c([N+](=O)[O-])cccc12` was tested, and the GI50 was inactive: 21.1 µM.
For `CSC1=C(SC)SC(=C2SC3=C(SC(=C4SCCS4)S3)S2)S1`, the GI50 was inactive: > 100 µM.
With `CSc1nc(C)c(CCOC(C)=O)c(Cl)n1` the GI50 was inactive: > 100 µM.
`CC(=O)O[C@H]1CCC2[C@@H]3CCC4C(=O)c5oncc5C[C@]4(C)C3CC[C@@]21C` (some centres not stated) was tested, and the GI50 was inactive: > 100 µM.
With `ClCCCSSCCCCl` the GI50 was inactive: 64 µM.
For `COC1=C(NC(C)=O)C(=O)c2nc3n(c2C1=O)CCC3`, the GI50 was inactive: 20.5 µM.
`COc1ccc2nccc(C3=CCC4CCN(C(=O)c5ccccc5)C3C4)c2c1` (configuration not stated) was tested, and the GI50 was inactive: > 100 µM.
With `C/C=C/COc1cc(NC(=S)c2ccoc2C)ccc1OC` the GI50 was inactive: > 100 µM.
In the case of `CN(C)CCNC(=O)c1cc(NC(=O)c2cc(NC(=O)CC/C=C3/[C@@H]4CC[C@H]3N=N4)cn2C)cn1C`, the GI50 was inactive: > 100 µM.
In the case of `Cc1nc2c(nc1C)C(=O)c1ccccc1C2=O`, the GI50 was inactive: 2.21 µM.
In the case of `CC1OC(NCCNCCNC2OC(C)C(O)C(O)C2O)C(O)C(O)C1O` (configuration not stated), the GI50 was inactive: > 100 µM.
`COC(=O)c1cc2ccc(O)c(O)c2cn1` was tested, and the GI50 was inactive: > 10 µM.
For `N#Cc1[nH]c(=S)[nH]c1N`, the GI50 was inactive: > 100 µM.
In the case of `CC#CC#C/C(=C/C=CC(=O)OC)SC`, the GI50 was inactive: > 100 µM.
With `Cc1nc2c(n1Cc1ccc(Cl)cc1)C(=O)c1ccccc1C2=O` the GI50 was inactive: 14.3 µM.
`CC1(C)[C@H]2CC[C@](C)(C2)[C@]1(S)Cc1ccccn1` was tested, and the GI50 was inactive: > 100 µM.
In the case of `COc1ccc(OC)c(/C=C/c2cnnc3ccccc23)c1`, the GI50 was inactive: > 10 µM.
`O=S1(=O)c2ccccc2N(O)C2=NCCN21` was tested, and the GI50 was inactive: > 100 µM.
For `c1ccc(CN2CCc3[nH]c4ccccc4c3C2)cc1`, the GI50 was inactive: 22.1 µM.
In the case of `CN(C)c1ccc(/C=C(\C#N)c2nc(-c3cc4ccccc4oc3=O)cs2)cc1`, the GI50 was inactive: > 50 µM.
In the case of `COc1ccc(SCc2cc(OC)c(OC)c(OC)c2)cc1OC`, the GI50 was inactive: > 100 µM.
In the case of `CCN(CC)c1ccc2cc(C(=O)Nc3ccc4[nH]c(C(=O)N5C[C@@H](CCl)c6c5cc(OC(=O)Nc5ccccc5)c5[nH]cc(C)c65)cc4c3)oc2c1` [CARZELESIN], the GI50 was inactive: 444 µM.
For `N#C/C(=C/NC(=S)Nc1ccc(S(N)(=O)=O)cc1)C(N)=O`, the GI50 was inactive: > 100 µM.
With `O=C1CCN(CCC(F)(F)C(F)(F)C(F)(F)C(F)(F)C(F)(F)C(F)(F)F)C(=S)N1CCC(F)(F)C(F)(F)C(F)(F)C(F)(F)C(F)(F)C(F)(F)F` the GI50 was inactive: > 100 µM.
With `CN1CC2CN(Cc3ccccc3)CCN2c2cccnc21` (configuration not stated) the GI50 was inactive: > 100 µM.
For `CC(=O)[C@H]1CCC2[C@@H]3CC=C4C(O)C(OS(=O)(=O)O)CC[C@]4(C)C3CC[C@@]21C` (some centres not stated), the GI50 was inactive: > 100 µM.
With `CCOc1ccccc1/C=C(/C#N)C(N)=O` the GI50 was inactive: > 100 µM.
`COC(=O)C(CC(C)C)NC(=O)CNC(=O)C(Cc1ccc(OCc2ccccc2)cc1)NC(=O)C(COCc1ccccc1)NC(=O)OC(C)(C)C` (configuration not stated) (Boc-S(Bn)Y(Bn)GL-OMe; configuration not given here) was tested, and the GI50 was inactive: > 100 µM.
In the case of `CC1(C)OC(=O)C2(O1)C(=O)C1CCCCC12` (configuration not stated), the GI50 was inactive: > 100 µM.
In the case of `Cc1nc(-c2cccnc2)sc1C(=O)/C=C/c1ccc(Cl)cc1Cl`, the GI50 was inactive: > 100 µM.
In the case of `O=C(NCP(=O)(c1ccccc1)c1ccccc1)OCc1ccccc1`, the GI50 was inactive: 77.3 µM.
In the case of `C[N+](C)(C)C.FC(F)(F)C1(C(F)(F)F)O[SiH-]2(OC(C(F)(F)F)(C(F)(F)F)c3ccccc32)c2ccccc21`, the GI50 was inactive: 13.3 µM.
For `CCc1c(-c2coc(CC/C(C)=C/c3ccccc3)n2)oc(OC)c(C)c1=O`, the GI50 was inactive: > 100 µM.
With `[O-][S@@+]1c2ccc3ccccc3c2N[C@@H]2[C@H]1[C@H]1C=C[C@@H]2C1` the GI50 was inactive: > 100 µM.
For `CC1=C(C(=O)Nc2cc(F)c(F)cc2F)C(c2ccc3c(c2)OCO3)C(C(=O)Nc2cc(F)c(F)cc2F)=C(C)N1`, the GI50 was inactive: 26.3 µM.
In the case of `CN1C(=O)C(Cl)(C(Cl)(Cl)S(=O)(=O)O)C(=O)c2ccccc21.c1ccncc1` (configuration not stated), the GI50 was inactive: > 100 µM.
`Cc1cccc(C)c1NC(=O)CCc1n[nH]c(=S)o1` was tested, and the GI50 was inactive: > 100 µM.
In the case of `CC1(C)CC(C#Cc2ccccc2)CC(C)(C)N1O`, the GI50 was inactive: 19.3 µM.
For `COc1ccc2nc3n(c2c1)C(c1c(Cl)cccc1Cl)SC3` (configuration not stated), the GI50 was inactive: > 100 µM.
In the case of `CCc1cccc(C)c1NC(=O)CC1C(=O)Nc2ccccc2[S+]1[O-]` (configuration not stated), the GI50 was inactive: 66.2 µM.
With `CCOC(=O)C1Cc2c(cc3c4c(cccc24)N(C(C)=O)C3)N(C)C1` (configuration not stated) the GI50 was inactive: > 100 µM.
`CC(=O)N1c2ccccc2C2=CC3C4C(=O)N(c5ccccc5)C(=O)C4C21C1C(=O)N(c2ccccc2)C(=O)C31` (configuration not stated) was tested, and the GI50 was inactive: 34.2 µM.
With `CN(/N=C/c1ccnc2ccccc12)c1ccc(Cl)cc1[N+](=O)[O-]` the GI50 was inactive: > 100 µM.
`COc1ccccc1/C=C/C(=O)c1sc(-c2cccnc2)nc1C` was tested, and the GI50 was inactive: > 100 µM.
In the case of `CNNC1=NS(=O)(=O)c2cc(C#N)c(Cl)cc2S1`, the GI50 was inactive: > 10 µM.
With `CC(=O)/C(=C(/Br)I)c1ccccc1` the GI50 was inactive: 15.6 µM.
With `N=C(N)SCc1ccc(Cl)c2ccccc12.O=[N+]([O-])c1ccc(O)c([N+](=O)[O-])c1` the GI50 was inactive: 14.5 µM.
`C[C@H](NC(=O)C(Cc1ccccc1)(Cc1ccc(O)cn1)NC(=O)c1ccccc1)c1ccccc1` (some centres not stated) was tested, and the GI50 was inactive: 18.5 µM.
For `Cc1nc(C)c(C(=O)NNC(=O)C[N+](C)(C)C)cc1C(=O)NNC(=O)C[N+](C)(C)C`, the GI50 was inactive: > 100 µM.
In the case of `COC(=O)C1=C(C(=O)OC)C2(C)OC1C(=O)C21CC1` (configuration not stated), the GI50 was inactive: 71.6 µM.
For `NC(CCC(=O)NC(CSCC1C(=O)Nc2ccccc21)C(=O)NCC(=O)O)C(=O)O` (configuration not stated), the GI50 was inactive: 13.2 µM.
With `CCOc1ccc2nc(NC(=O)C(=O)C(C(=O)c3ccccc3F)C3OC(=O)c4ccccc43)sc2c1` (configuration not stated) the GI50 was inactive: 27.2 µM.
`O=C1c2ccccc2C(=O)c2sc(Nc3ccc(Cl)cc3)nc21` was tested, and the GI50 was inactive: 6.32 µM.
In the case of `CCOC(=O)NC(=O)c1cn(CCCCCOC(=O)NCCCCCCNC(=O)OCCCCCn2cc(C(=O)NC(=O)OCC)c(=O)[nH]c2=O)c(=O)[nH]c1=O`, the GI50 was inactive: > 100 µM.
`CCOP(C)(=O)C(Nc1ccc(F)cc1)c1ccc(F)cc1` (configuration not stated) was tested, and the GI50 was inactive: > 100 µM.
For `COc1cc(C[C@@]2(C)[C@@H]3CCC[C@H](CO)[C@@]3(C)CC[C@@H]2C)c(Cl)c(OC)c1`, the GI50 was inactive: 17.2 µM.
In the case of `CN1C2CCC1CC(CCOC(c1ccc(F)cc1)c1ccc(F)cc1)C2` (configuration not stated), the GI50 was inactive: 14.5 µM.
With `COc1ccc(Nc2nc3cc(C(F)(F)F)ccc3nc2C(=O)O)cc1` the GI50 was inactive: 23.9 µM.
For `Cc1c(/C=N/NC(=O)c2ccc(Cl)cc2)c(=O)n(-c2ccccc2)n1C`, the GI50 was inactive: > 100 µM.
With `O=C1CC2(CCC(O)(c3cccs3)C(C(=O)c3cccs3)C2)C(=O)c2ccccc2N1` (configuration not stated) the GI50 was inactive: > 100 µM.
With `C=C1C(=O)O[C@H]2C(=O)[C@H](C)CCC/C(C)=C/CC[C@@]3(C)O[C@@H]3C[C@@H]12` the GI50 was active: 0.902 µM.
In the case of `CC(C)(C)OC(=O)N1CCC23CCCC2C(=O)CC=C13` (configuration not stated), the GI50 was inactive: > 100 µM.
`CCCc1c(C(=O)OCC)[nH]c(C(=O)CCC(=O)c2[nH]c(C(=O)OCC)c(CCC)c2C(=O)OCC)c1C(=O)OCC` was tested, and the GI50 was inactive: > 100 µM.
`O=S(=O)(N/C(=N\O)Nc1ccc(Cl)cc1)c1cc2ccccc2s1` was tested, and the GI50 was inactive: 16.8 µM.
With `Clc1ccccc1-c1nc(-c2ccncc2)no1` [PIFEXOLE] the GI50 was inactive: > 100 µM.
`O=C(Cn1c2c(c3ccccc31)CCCC2)NC1CCCCC1` was tested, and the GI50 was inactive: > 100 µM.
